The supplement of paper PMC4604168 (melanoma cell lines)
The other results are listed elsewhere or left out. Many values rest on one well or one pass, so single values are uncertain.

What follows are compounds tested on SkMel2 (assay: cell count relative to DMSO control; melanoma cells; higher = more viable cells). Conditions: library dose: standard library concentration; 72 h.
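Also: cells treated in 1,536-well plates, then fixed and DAPI-stained, with nuclei counted from automated high-throughput microscope images.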

Compound	cell count [%]
O=C(Nc1cc(C(F)(F)F)cc(C(F)(F)F)c1)c1cc(Cl)ccc1O + Nc1ncn([C@H]2C[C@H](O)[C@@H](CO)O2)c(=O)n1 [decitabine] (first compound 0.08 µM, partner dose 0.5 µM)	86.2
O=C(O)[C@@H]1[O][Sb](=[O])([O][Sb]2(=[O])[O][C@H]([C@H](O)CO)[C@H](O)[C@H](C(=O)O)[O]2)[O][C@H]([C@H](O)CO)[C@@H]1O (some centres undefined) [stibogluconate] + N#Cc1c(O)c2c(-c3ccc(-c4ccccc4O)cc3)csc2[nH]c1=O [A769662] (first compound 10 µM, partner dose 10 µM)	111
O=C(Nc1ccccc1)c1cc([N+](=O)[O-])ccc1Cl + Cc1cc([N+](=O)[O-])ccc1NS(=O)(=O)c1cc(Cl)ccc1Cl [FH535] (first compound 10 µM, partner dose 5 µM)	86.2
O=C(Nc1cc(C(F)(F)F)cc(C(F)(F)F)c1)c1cc(Cl)ccc1O + Nc1ccn([C@@H]2O[C@H](CO)[C@@H](O)C2(F)F)c(=O)n1 [gemcitabine] (first compound 0.08 µM, partner dose 0.002 µM)	90
O=C(Nc1cc(C(F)(F)F)cc(C(F)(F)F)c1)c1cc(Cl)ccc1O + C=CCn1c(=O)c2cnc(Nc3ccc(N4CCN(C)CC4)cc3)nc2n1-c1cccc(C(C)(C)O)n1 [MK1775] (first compound 0.08 µM, partner dose 0.1 µM)	95.2
Cn1nnc2c(C(N)=O)ncn2c1=O [temozolomide] + CCN(CC)CCCCNc1ncc2cc(-c3cc(OC)cc(OC)c3)c(NC(=O)NC(C)(C)C)nc2n1 [PD173074] (first compound 10 µM, partner dose 0.5 µM)	103
O=C(O)[C@@H]1[O][Sb](=[O])([O][Sb]2(=[O])[O][C@H]([C@H](O)CO)[C@H](O)[C@H](C(=O)O)[O]2)[O][C@H]([C@H](O)CO)[C@@H]1O (some centres undefined) [stibogluconate] + Nc1ncn([C@H]2C[C@H](O)[C@@H](CO)O2)c(=O)n1 [decitabine] (first compound 10 µM, partner dose 0.5 µM)	106
O=C(O)c1ccc2c(c1)nc(Nc1cccc(Cl)c1)c1ccncc12 + C=CCn1c(=O)c2cnc(Nc3ccc(N4CCN(C)CC4)cc3)nc2n1-c1cccc(C(C)(C)O)n1 [MK1775] (first compound 2 µM, partner dose 0.1 µM)	63.4
O=C(O)c1ccc2c(c1)nc(Nc1cccc(Cl)c1)c1ccncc12 + COc1cc(N2CCC(N3CCN(C)CC3)CC2)ccc1Nc1ncc(Cl)c(Nc2ccccc2S(=O)(=O)C(C)C)n1 [NVP-TAE684] (first compound 2 µM, partner dose 0.4 µM)	52.7
O=C(O)c1ccc2c(c1)nc(Nc1cccc(Cl)c1)c1ccncc12 + Cc1cc([N+](=O)[O-])ccc1NS(=O)(=O)c1cc(Cl)ccc1Cl [FH535] (first compound 2 µM, partner dose 5 µM)	78.6
O=C(Nc1cc(C(F)(F)F)cc(C(F)(F)F)c1)c1cc(Cl)ccc1O + Cn1c(Nc2ccc(C(F)(F)F)cc2)nc2cc(Oc3ccnc(-c4ncc(C(F)(F)F)[nH]4)c3)ccc21 [CHIR265] (first compound 0.08 µM, partner dose 0.4 µM)	47.4
O=C(O)[C@@H]1[O][Sb](=[O])([O][Sb]2(=[O])[O][C@H]([C@H](O)CO)[C@H](O)[C@H](C(=O)O)[O]2)[O][C@H]([C@H](O)CO)[C@@H]1O (some centres undefined) [stibogluconate] + COc1cc2ncnc(Nc3ccc(Oc4ccccc4)cc3)c2cc1OC [SrcI1] (first compound 10 µM, partner dose 10 µM)	103
O=C(O)c1ccc2c(c1)nc(Nc1cccc(Cl)c1)c1ccncc12 + C#Cc1cccc(Nc2ncnc3cc(OCCOC)c(OCCOC)cc23)c1 [erlotinib] (first compound 2 µM, partner dose 4 µM)	61.5
Cc1cc(N2CCOCC2)cc2[nH]c(-c3c(NC[C@@H](O)c4cccc(Cl)c4)cc[nH]c3=O)nc12 + Oc1cc(-c2nc(-c3ccccc3)[nH]c2-c2ccncc2)ccc1Cl [L779450] (first compound 1 µM, partner dose 1 µM)	4.43
